This passage reports binding signal results from article PMC7819943, “Rice protein-binding microarrays: a tool to detect cis-acting elements near promoter regions in rice”.

The list shows a part of the results.

The target of this test is T1, OsWOX13 (Oryza sativa, UniProt Q5QMM3 1-267).
T1 sequence: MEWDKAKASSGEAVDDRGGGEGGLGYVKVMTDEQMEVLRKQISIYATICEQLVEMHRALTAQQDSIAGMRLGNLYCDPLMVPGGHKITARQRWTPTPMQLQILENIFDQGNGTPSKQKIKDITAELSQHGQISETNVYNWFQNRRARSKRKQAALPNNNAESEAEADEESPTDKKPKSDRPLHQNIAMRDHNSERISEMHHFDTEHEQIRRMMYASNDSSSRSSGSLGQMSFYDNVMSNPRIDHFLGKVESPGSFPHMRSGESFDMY
The test is described as follows: protein-binding microarray (RPBM); PBS, 2% BSA, 51.3 ng/ul salmon testes DNA, 50 uM zinc acetate, 200 nM TF, 25 C, 1 h; high values mean tight binding. The note with it: protein: recombinant; tags: N-terminal polyhistidine and DsRed monomer fusion (pET32a); label: CyDye5-dUTP incorporated in the synthesized complementary strand; 3' TTTTT single-stranded linker to array surface; dsDNA, one strand shown. In outline:
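Per-feature fluorescence intensity (arbitrary units), read on an Axon 4000B scanner, is the binding signal. Transcription factors carrying an N-terminal polyhistidine tag and DsRed fusion were expressed in E. coli BL21-CodonPlus and purified on Ni–NTA. A custom Agilent array, made double-stranded by primer extension with Cy5-dUTP and blocked with 2% BSA, was incubated with 200 nM protein in PBS, 2% BSA, salmon testes DNA and 50 µM zinc acetate at 25 °C for 1 h and then washed.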
With “CCTTGACTTGGATTGCCTTCCCTTTGTGGATGACATGCACCGGAGTCACCTAGTGCAG”, the binding signal was 6180 fluorescence intensity (a.u.).

With “GGATGATTTGGTCAGTAGCTTGAGGGATTTGAATTCTTGGCGGAGTCACCTAGTGCAG”, the binding signal is 31000 fluorescence intensity (a.u.).

“TTTGCATAACAGGAATTTAATTCCAAAGGAAAATTTGTGCCGGAGTCACCTAGTGCAG”: the binding signal is 4760 fluorescence intensity (a.u.).

In the case of “GACCATTGACATGTGGGATGAATTTTAGACTAGGCGATAACGGAGTCACCTAGTGCAG”, the binding signal was 3290 fluorescence intensity (a.u.).

As to “AATTGATGATGAAATAATGAATGATATTTGACAAGGAGCTCGGAGTCACCTAGTGCAG”, the binding signal was 17300 fluorescence intensity (a.u.).

In the case of “ACCCAATCTTCGGCACTAATCAACCGGAGGACGACGAACCCGGAGTCACCTAGTGCAG”, the binding signal is 6630 fluorescence intensity (a.u.).

Take “GTTCCAGAGATCAATTAACGTAGCATAGTGAGATATACAGCGGAGTCACCTAGTGCAG”: the binding signal is 4420 fluorescence intensity (a.u.).

For the sequence “GTTTGATTTTGTGATGCGTCTTCGGTTAGACTTTGAACCTCGGAGTCACCTAGTGCAG”, the binding signal is 17600 fluorescence intensity (a.u.).

With “TAAATTGAATTCTCTCAATACCTCTAGGATTGTCGTGGCTCGGAGTCACCTAGTGCAG”, the binding signal is 16700 fluorescence intensity (a.u.).

With “CCAAAATTAACCAGTACACCATACGTGGTTTTCTTCATCACGGAGTCACCTAGTGCAG”, the binding signal was 9160 fluorescence intensity (a.u.).

In the case of “CCCTCAATCAGCTGGTCGGCTGGTCGCACACACCACGTTCCGGAGTCACCTAGTGCAG”, the binding signal is 11500 fluorescence intensity (a.u.).

Regarding “AGAGCTGATCTGATTAGCACCGATCACAGGTTGGTCCGCACGGAGTCACCTAGTGCAG”, the binding signal was 19000 fluorescence intensity (a.u.).

For the sequence “TTATGATTTCAACATGATAGTTGGGTAGTGATGGTCCACTCGGAGTCACCTAGTGCAG”, the binding signal was 6460 fluorescence intensity (a.u.).

“GAGTAAATTACAATCCATACTATACTATGTATTCTTAGAACGGAGTCACCTAGTGCAG”: the binding signal was 11900 fluorescence intensity (a.u.).

Take “CCCCAATGATAATTATGTTCGATTTTAAAATCTCAATGACCGGAGTCACCTAGTGCAG”: the binding signal is 22200 fluorescence intensity (a.u.).

Consider “TGTAAATTACGAGACGAATTTATCAAGCCTAATTAATCTGCGGAGTCACCTAGTGCAG”, for which the binding signal is 17500 fluorescence intensity (a.u.).

Regarding “AAATAATTAGTTGTACGGATGAATTAAGTACTACATAGTACGGAGTCACCTAGTGCAG”, the binding signal was 13300 fluorescence intensity (a.u.).

As for “CATTTGCCAATTTCAAATTTTCAATTTGCATTCCGTGTCACGGAGTCACCTAGTGCAG”, the binding signal was 4160 fluorescence intensity (a.u.).

Take “CAAGACAAACCCTGGAATCAATCAGCCTCCAAAGACAAGGCGGAGTCACCTAGTGCAG”: the binding signal is 5840 fluorescence intensity (a.u.).

Consider “GCACGGTTATTTAAATTGAACTTTGACCGTAAGTAGCAGTCGGAGTCACCTAGTGCAG”, for which the binding signal was 12200 fluorescence intensity (a.u.).

“CAAATGCCGAACGATGAGTGATTGATCACTCGGACGTCACCGGAGTCACCTAGTGCAG”: the binding signal was 8960 fluorescence intensity (a.u.).

For the sequence “GTGTAATCGGATCGTAGATTGGATGAGTAGTTTAAGAGAACGGAGTCACCTAGTGCAG”, the binding signal is 3310 fluorescence intensity (a.u.).

As for “GGAGTGTAATTTGTTTTGTTATTAGACCACGTTTAATACTCGGAGTCACCTAGTGCAG”, the binding signal is 8990 fluorescence intensity (a.u.).

“ACTAGATTAGTCCCAACTTAACTACAGCTTGCAGATGATGCGGAGTCACCTAGTGCAG”: the binding signal was 9970 fluorescence intensity (a.u.).

Consider “GATTAGGATTGCTGAATTGATGCAGATATATCCCTCTCTCCGGAGTCACCTAGTGCAG”, for which the binding signal is 5550 fluorescence intensity (a.u.).

As for “CGTATAAATATAATATAATTACAGTGTTATTAAATTATATCGGAGTCACCTAGTGCAG”, the binding signal was 8870 fluorescence intensity (a.u.).

In the case of “TTCTATCTTGACTGTTGACTGAAAATTTTACTAGTACCTTCGGAGTCACCTAGTGCAG”, the binding signal was 15100 fluorescence intensity (a.u.).

Turning to “TCCTAAATTTTCTTTGATCCATCTCCATATATACTTACATCGGAGTCACCTAGTGCAG”, the binding signal is 4910 fluorescence intensity (a.u.).

Regarding “TCTATAAATTACCCAAAACTGCATCCAGAAAGAGCCACGTCGGAGTCACCTAGTGCAG”, the binding signal is 6240 fluorescence intensity (a.u.).

Consider “CCTAATTAATCTATCATTAGCAAGTGTTTATGGTAGCACCCGGAGTCACCTAGTGCAG”, for which the binding signal was 42700 fluorescence intensity (a.u.).

With “AACAAATAAGCTGCTAATTAATTAAGAACTTCCATTATTCCGGAGTCACCTAGTGCAG”, the binding signal was 15000 fluorescence intensity (a.u.).

For the sequence “GTATAAATTATAAATCACACTTAAAGTATTATGAGTGATACGGAGTCACCTAGTGCAG”, the binding signal was 18100 fluorescence intensity (a.u.).

With “TATAAGAAATAATTGAAAAGACCAGAACTGAATGTTGTACCGGAGTCACCTAGTGCAG”, the binding signal is 6810 fluorescence intensity (a.u.).

As for “AGATGGATAGATAGATAGATAGATAGGGCCGGCAACCCAGCGGAGTCACCTAGTGCAG”, the binding signal is 26900 fluorescence intensity (a.u.).

For the sequence “GTTACCAGTGAGTCAATCATCTCCCTTTCTTTCCTCTCTTCGGAGTCACCTAGTGCAG”, the binding signal was 10000 fluorescence intensity (a.u.).

Regarding “CATGATTATTTCAGGTGGCTCCTCCTTGATGGGTTGCATTCGGAGTCACCTAGTGCAG”, the binding signal is 29500 fluorescence intensity (a.u.).

For “CGAAGAAATTGTTCTAATTAACCTAGAGTTAATTCCCTAACGGAGTCACCTAGTGCAG”, the binding signal was 9750 fluorescence intensity (a.u.).

Take “GAGATAGATATAATCACAAAAGCTTCTAGAATGGCGGAAACGGAGTCACCTAGTGCAG”: the binding signal was 8390 fluorescence intensity (a.u.).

Turning to “AATAATTTAGTATTGGATGAGTTTCTATCCGTTCTGATTTCGGAGTCACCTAGTGCAG”, the binding signal was 7120 fluorescence intensity (a.u.).

As to “GATGATTACACTATGGCAAAGGAGGGCTGGAGGATTACGACGGAGTCACCTAGTGCAG”, the binding signal was 11300 fluorescence intensity (a.u.).

In the case of “TTAAAATAATAGCTAATACTTAATTTATCACGTGCTAATGCGGAGTCACCTAGTGCAG”, the binding signal was 4890 fluorescence intensity (a.u.).

“CACTATCAATTAAGCCCATTGGCTAAAACTACATTTTGTACGGAGTCACCTAGTGCAG”: the binding signal was 15900 fluorescence intensity (a.u.).

As to “CCGAAAATTGAGACACGAATTTATTAAGCTTAATTAATCCCGGAGTCACCTAGTGCAG”, the binding signal was 22000 fluorescence intensity (a.u.).

On to “GTGGCTTATAAATTGATGGCCACACCTTAGGCAACTTTTGCGGAGTCACCTAGTGCAG”, for which the binding signal is 7700 fluorescence intensity (a.u.).

In the case of “TGGGGTTTGATTATTTGACATTTTGGTATATTTTCATCAACGGAGTCACCTAGTGCAG”, the binding signal is 9690 fluorescence intensity (a.u.).

As to “TTGATTGTTCACTGTTAGTCTATCATCTACCCCAAAGGTTCGGAGTCACCTAGTGCAG”, the binding signal was 32600 fluorescence intensity (a.u.).

On to “CCCCAATCAACTTCTTCAATTATCCATGCATTCCTTACGCCGGAGTCACCTAGTGCAG”, for which the binding signal is 23800 fluorescence intensity (a.u.).

Regarding “ATATTAATTTTACGTTTCTAAATTATTGTTTTAGAAGTTACGGAGTCACCTAGTGCAG”, the binding signal is 14300 fluorescence intensity (a.u.).

For “GATGACATTAATTAGCACTAATGATAATTGTTAATATTTTCGGAGTCACCTAGTGCAG”, the binding signal was 25000 fluorescence intensity (a.u.).

Take “GTTAATTTCTCTCTCGTTTGAGTGCTTCCAAATAAATTCCCGGAGTCACCTAGTGCAG”: the binding signal was 3820 fluorescence intensity (a.u.).

As for “TTGGTAATTTCATTCAGACATTGTTTGCAAGATTGCACCACGGAGTCACCTAGTGCAG”, the binding signal was 12000 fluorescence intensity (a.u.).

Take “TATATATATATATATATATATATATATATATAAACCATGCCGGAGTCACCTAGTGCAG”: the binding signal was 21500 fluorescence intensity (a.u.).

Take “CGGAATTAATCTGATTATGTGAGTGAATTGGCATTTTGAACGGAGTCACCTAGTGCAG”: the binding signal was 30700 fluorescence intensity (a.u.).

As for “ATAGTTACAGTGTAATTACATGAAAGTTACAGTGTAATTACGGAGTCACCTAGTGCAG”, the binding signal was 3880 fluorescence intensity (a.u.).
